What is called Kd is the constant that tells how readily two partners part at equilibrium.

The first assay deals with HSV-1.
Test: not given
Details: key: V: Virucidal; S: Virustatic; NA: No virucidal Activity.
Conditions: not given
As to `O=S(=O)(O)OCCCCCCSCc1cc(CSCCCCCCOS(=O)(=O)O)cc(CSCCCCCCOS(=O)(=O)O)c1` [B3C6SO4], the “Virucidal activity, V-1” value is “V”.

For the compound `O=S(=O)(O)OCCCCCCCCCCCSCc1cc(CSCCCCCCCCCCCOS(=O)(=O)O)cc(CSCCCCCCCCCCCOS(=O)(=O)O)c1` [B3C11SO4], the “Virucidal activity, V-1” value is reported as “V”.

In the case of `O=S(=O)(O)CCCCCCCCCCCSCc1cc2c(cc1CSCCCCCCCCCCCS(=O)(=O)O)OCCOCCOc1cc(CSCCCCCCCCCCCS(=O)(=O)O)c(CSCCCCCCCCCCCS(=O)(=O)O)cc1OCCOCCO2` [C4C11SO3], the “Virucidal activity, V-1” value is given as “V”.

As for `O=S(=O)(O)OCCCCCCCCCCCSCc1cc2c(cc1CSCCCCCCCCCCCOS(=O)(=O)O)OCCOCCOc1cc(CSCCCCCCCCCCCOS(=O)(=O)O)c(CSCCCCCCCCCCCOS(=O)(=O)O)cc1OCCOCCO2` [C4C11SO4], the “Virucidal activity, V-1” value was “V”.

A further assay has as its system HSV-2. The assay is described as follows: HSV-2 virucidal assay. Details: key: V: Virucidal; S: Virustatic; NA: No virucidal Activity. The following applies: virucidal titration at 90–99% viral inhibition concentration, Vero cells.
For the compound `O=S(=O)(O)OCCCCCCSCc1cc(CSCCCCCCOS(=O)(=O)O)cc(CSCCCCCCOS(=O)(=O)O)c1` [B3C6SO4], the “Virucidal activity, HSV-2” value was “V”.

On to `O=S(=O)(O)OCCCCCCCCCCCSCc1cc(CSCCCCCCCCCCCOS(=O)(=O)O)cc(CSCCCCCCCCCCCOS(=O)(=O)O)c1` [B3C11SO4], for which the “Virucidal activity, HSV-2” value is given as “V”.

Consider `O=S(=O)(O)CCCCCCCCCCCSCc1cc2c(cc1CSCCCCCCCCCCCS(=O)(=O)O)OCCOCCOc1cc(CSCCCCCCCCCCCS(=O)(=O)O)c(CSCCCCCCCCCCCS(=O)(=O)O)cc1OCCOCCO2` [C4C11SO3], for which the “Virucidal activity, HSV-2” value is recorded as “V”.

Regarding `O=S(=O)(O)OCCCCCCCCCCCSCc1cc2c(cc1CSCCCCCCCCCCCOS(=O)(=O)O)OCCOCCOc1cc(CSCCCCCCCCCCCOS(=O)(=O)O)c(CSCCCCCCCCCCCOS(=O)(=O)O)cc1OCCOCCO2` [C4C11SO4], the “Virucidal activity, HSV-2” value is given as “V”.

The next assay relates to H1N1N09. The assay is described as follows: Influenza virucidal assay. To be noted: virucidal titration at 90–99% viral inhibition concentration, MDCK cells. Details: key: V: Virucidal; S: Virustatic; NA: No virucidal Activity.
Turning to `O=S(=O)(O)OCCCCCCSCc1cc(CSCCCCCCOS(=O)(=O)O)cc(CSCCCCCCOS(=O)(=O)O)c1` [B3C6SO4], the “Virucidal activity, H1N1N09” value is reported as “V”.

On to `O=S(=O)(O)OCCCCCCCCCCCSCc1cc(CSCCCCCCCCCCCOS(=O)(=O)O)cc(CSCCCCCCCCCCCOS(=O)(=O)O)c1` [B3C11SO4], for which the “Virucidal activity, H1N1N09” value is reported as “V”.

Regarding `O=S(=O)(O)CCCCCCCCCCCSCc1cc2c(cc1CSCCCCCCCCCCCS(=O)(=O)O)OCCOCCOc1cc(CSCCCCCCCCCCCS(=O)(=O)O)c(CSCCCCCCCCCCCS(=O)(=O)O)cc1OCCOCCO2` [C4C11SO3], the “Virucidal activity, H1N1N09” value is “V”.

In the case of `O=S(=O)(O)OCCCCCCCCCCCSCc1cc2c(cc1CSCCCCCCCCCCCOS(=O)(=O)O)OCCOCCOc1cc(CSCCCCCCCCCCCOS(=O)(=O)O)c(CSCCCCCCCCCCCOS(=O)(=O)O)cc1OCCOCCO2` [C4C11SO4], the “Virucidal activity, H1N1N09” value is on record as “V”.

For a further assay, the system named is H1N1 clinical.
Test: not given
Details: key: V: Virucidal; S: Virustatic; NA: No virucidal Activity.
Conditions: not given
`O=S(=O)(O)OCCCCCCCCCCCSCc1cc(CSCCCCCCCCCCCOS(=O)(=O)O)cc(CSCCCCCCCCCCCOS(=O)(=O)O)c1` [B3C11SO4]: the “Virucidal activity, H1N1 clinical” value is “V”.

Take `O=S(=O)(O)CCCCCCCCCCCSCc1cc2c(cc1CSCCCCCCCCCCCS(=O)(=O)O)OCCOCCOc1cc(CSCCCCCCCCCCCS(=O)(=O)O)c(CSCCCCCCCCCCCS(=O)(=O)O)cc1OCCOCCO2` [C4C11SO3]: the “Virucidal activity, H1N1 clinical” value is listed as “V”.

For the compound `O=S(=O)(O)OCCCCCCCCCCCSCc1cc2c(cc1CSCCCCCCCCCCCOS(=O)(=O)O)OCCOCCOc1cc(CSCCCCCCCCCCCOS(=O)(=O)O)c(CSCCCCCCCCCCCOS(=O)(=O)O)cc1OCCOCCO2` [C4C11SO4], the “Virucidal activity, H1N1 clinical” value is given as “V”.

The next assay deals with H3N2.
Test: not given
Conditions: not given
Details: key: V: Virucidal; S: Virustatic; NA: No virucidal Activity.
As to `O=S(=O)(O)OCCCCCCCCCCCSCc1cc(CSCCCCCCCCCCCOS(=O)(=O)O)cc(CSCCCCCCCCCCCOS(=O)(=O)O)c1` [B3C11SO4], the “Virucidal activity, H3N2” value is “V”.

In the case of `O=S(=O)(O)CCCCCCCCCCCSCc1cc2c(cc1CSCCCCCCCCCCCS(=O)(=O)O)OCCOCCOc1cc(CSCCCCCCCCCCCS(=O)(=O)O)c(CSCCCCCCCCCCCS(=O)(=O)O)cc1OCCOCCO2` [C4C11SO3], the “Virucidal activity, H3N2” value is listed as “V”.

As for `O=S(=O)(O)OCCCCCCCCCCCSCc1cc2c(cc1CSCCCCCCCCCCCOS(=O)(=O)O)OCCOCCOc1cc(CSCCCCCCCCCCCOS(=O)(=O)O)c(CSCCCCCCCCCCCOS(=O)(=O)O)cc1OCCOCCO2` [C4C11SO4], the “Virucidal activity, H3N2” value is “V”.

In another assay the test system is FluB.
Test: not given
Details: key: V: Virucidal; S: Virustatic; NA: No virucidal Activity.
Conditions: not given
On to `O=S(=O)(O)OCCCCCCCCCCCSCc1cc(CSCCCCCCCCCCCOS(=O)(=O)O)cc(CSCCCCCCCCCCCOS(=O)(=O)O)c1` [B3C11SO4], for which the “Virucidal activity, FluB” value was “V”.

As for `O=S(=O)(O)CCCCCCCCCCCSCc1cc2c(cc1CSCCCCCCCCCCCS(=O)(=O)O)OCCOCCOc1cc(CSCCCCCCCCCCCS(=O)(=O)O)c(CSCCCCCCCCCCCS(=O)(=O)O)cc1OCCOCCO2` [C4C11SO3], the “Virucidal activity, FluB” value is “V”.

The next assay has as its target recombinant H1N1 (A/California/04/2009) hemagglutinin (HA1) (Influenza A virus, UniProt C3W5S1). The assay is described as follows: Isothermal titration calorimetry with HA1. The assay is classed as binding, influenza virus H1N1 (A/California/04/2009).
Conditions: not given
Background: In ITC the heat of successive injections is recorded.
For the compound `O=S(=O)(O)OCCCCCCSCc1cc(CSCCCCCCOS(=O)(=O)O)cc(CSCCCCCCOS(=O)(=O)O)c1` [B3C6SO4], the Kd was 26.6 µM.

`O=S(=O)(O)CCCCCCCCCCCSCc1cc(CSCCCCCCCCCCCS(=O)(=O)O)cc(CSCCCCCCCCCCCS(=O)(=O)O)c1` [B3C11SO3]: the dissociation constant (Kd) worked out at 17.1 µM.

`O=S(=O)(O)OCCCCCCCCCCCSCc1cc(CSCCCCCCCCCCCOS(=O)(=O)O)cc(CSCCCCCCCCCCCOS(=O)(=O)O)c1` [B3C11SO4]: the Kd was 16.9 µM.

Take `O=S(=O)(O)CCCCCCCCCCCSCc1cc2c(cc1CSCCCCCCCCCCCS(=O)(=O)O)OCCOCCOc1cc(CSCCCCCCCCCCCS(=O)(=O)O)c(CSCCCCCCCCCCCS(=O)(=O)O)cc1OCCOCCO2` [C4C11SO3]: the Kd came to 29.1 µM.

On to `O=S(=O)(O)OCCCCCCCCCCCSCc1cc2c(cc1CSCCCCCCCCCCCOS(=O)(=O)O)OCCOCCOc1cc(CSCCCCCCCCCCCOS(=O)(=O)O)c(CSCCCCCCCCCCCOS(=O)(=O)O)cc1OCCOCCO2` [C4C11SO4], for which the Kd was 23.3 µM.

Staying with this assay, now noted: ITC, 25°C.
Take `O=S(=O)(O)CCCCCCSCc1cc(CSCCCCCCS(=O)(=O)O)cc(CSCCCCCCS(=O)(=O)O)c1` [B3C6SO3]: the “Kd (HA1)” value is recorded as “No binding”.

Turning to `O=S(=O)(O)OCCCCCCSCc1cc(CSCCCCCCOS(=O)(=O)O)cc(CSCCCCCCOS(=O)(=O)O)c1` [B3C6SO4], the “-∆TS (HA1)” value is given as -0.012 kcal/mol, the “∆G (HA1)” value is given as -6.24 kcal/mol and the “∆H (HA1)” value is -6.23 kcal/mol.

Turning to `O=S(=O)(O)CCCCCCCCCCCSCc1cc(CSCCCCCCCCCCCS(=O)(=O)O)cc(CSCCCCCCCCCCCS(=O)(=O)O)c1` [B3C11SO3], the “-∆TS (HA1)” value is on record as 0.462 kcal/mol, the “∆G (HA1)” value was -6.5 kcal/mol and the “∆H (HA1)” value is listed as -6.97 kcal/mol.

On to `O=S(=O)(O)OCCCCCCCCCCCSCc1cc(CSCCCCCCCCCCCOS(=O)(=O)O)cc(CSCCCCCCCCCCCOS(=O)(=O)O)c1` [B3C11SO4], for which the “-∆TS (HA1)” value was found to be 5.81 kcal/mol, the “∆G (HA1)” value was -6.51 kcal/mol and the “∆H (HA1)” value is -12.3 kcal/mol.

With `O=S(=O)(O)CCCCCCCCCCCSCc1cc2c(cc1CSCCCCCCCCCCCS(=O)(=O)O)OCCOCCOc1cc(CSCCCCCCCCCCCS(=O)(=O)O)c(CSCCCCCCCCCCCS(=O)(=O)O)cc1OCCOCCO2` [C4C11SO3], the “-∆TS (HA1)” value is recorded as -0.223 kcal/mol, the “∆G (HA1)” value is -6.19 kcal/mol and the “∆H (HA1)” value was -5.97 kcal/mol.

Regarding `O=S(=O)(O)OCCCCCCCCCCCSCc1cc2c(cc1CSCCCCCCCCCCCOS(=O)(=O)O)OCCOCCOc1cc(CSCCCCCCCCCCCOS(=O)(=O)O)c(CSCCCCCCCCCCCOS(=O)(=O)O)cc1OCCOCCO2` [C4C11SO4], the “-∆TS (HA1)” value stood at 0.385 kcal/mol, the “∆G (HA1)” value is listed as -6.32 kcal/mol and the “∆H (HA1)” value was -6.7 kcal/mol.

These data come from paper PMC12598866, “A Comparative Study of Virucidal and Virustatic Multivalent Entry Inhibitors” (The Journal of Physical Chemistry. B, 2025).
